Laboratory results reported in the supplement of paper PMC3334620.
The full ranking holds about 33,000 sequences; the median of “E-score (-0.5 to 0.5)” is about -0.016, and the highest 2% start at about 0.31. The list shows a part of the results.

Target: Cst6 (UniProt P40535)
Assay: PBM E-score (8-mer binding enrichment) (E-score (-0.5 to 0.5)); higher = stronger / more preferred TF binding; most listed sequences are background and not binding sites
Conditions: protein concentration: 200 nM; construct: GST-DNA-binding domain
Summary of the method: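 For each ungapped eight-base word taken together with its reverse complement, the Universal PBM Analysis Suite assigned an E-score. Binding data came from GST-tagged yeast transcription factors, applied at about 100-200 nM, on universal all-10-mer Agilent arrays made double-stranded by primer extension. Fluorescent anti-GST marked bound protein, and scans were normalised with masliner.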

| Sequence | PBM E-score |
| --- | --- |
| CCTCCAAG | -0.133 |
| ACCGTTAT | 0.0799 |
| ACTCATCA | 0.00088 |
| AATCGATA | 0.113 |
| AGGCACCA | 0.149 |
| AGAGCCCG | -0.132 |
| ATTAACAA | 0.3 |
| GAACACCA | -0.0599 |
| TCGATAGA | -0.019 |
| TCGTTAAA | 0.062 |
| CACATCTC | 0.0868 |
| TCATCAAA | 0.248 |
| ACCCATCC | -0.143 |
| GAGCAATA | -0.133 |
| AGCACTTC | 0.0406 |
| AAGTGGGG | -0.248 |
| CATTAGTA | 0.143 |
| CACGACGA | -0.0627 |
| ATCCGTTC | 0.0694 |
| AACGGTGA | 0.0858 |
| AATACAAT | 0.222 |
| CAAAACGA | 0.0891 |

| Sequence | PBM E-score |
| --- | --- |
| ATGAGATC | 0.157 |
| CAAATTAA | 0.224 |
| AAGTGGAG | -0.052 |
| TAAACAGA | 0.0948 |
| ATCACCTA | 0.0446 |
| CTCAAGCA | -0.0615 |
| AATCATGC | 0.0631 |
| CATTCTGC | 0.0305 |
| GAGGATCC | -0.162 |
| GTCTCGTA | -0.0486 |
| ACACATGC | -0.0255 |
| AACTCAGA | 0.0684 |
| AAAATGCA | -0.113 |
| CCTTTCCG | -0.122 |
| CTTCACGC | 0.114 |
| CACAGTGC | -0.024 |
| ATCCACTA | -0.0271 |
| CTCCCGAA | -0.122 |
| AGCAGTAT | -0.0639 |
| GGGGAGAC | -0.368 |
| AACGTATT | 0.197 |
| CAGCTAAA | 0.0189 |

| Sequence | PBM E-score |
| --- | --- |
| CAACATGA | 0.175 |
| GCCTTTCC | 0.123 |
| GCATATCA | 0.133 |
| GCGTTAAA | -0.0116 |
| AAACCAAT | 0.135 |
| GGAAACCC | -0.147 |
| CTTAAAGC | -0.00117 |
| CCACTGGA | -0.0966 |
| ATCCTGAG | -0.00052 |
| ATGTGCCA | -0.0277 |
| CCTATCCC | -0.00694 |
| AATTACAG | 0.15 |
| AAATTTTA | 0.244 |
| GCGCCACA | 0.0597 |
| AGACGCCC | -0.114 |
| CCAAAATC | 0.0704 |
| AACGTGAT | 0.122 |
| CCGATTGA | 6e-05 |
| CCATGGCG | 0.102 |
| AAGGTGAA | 0.00299 |
| AGTCAAGA | -0.0402 |
| ATTTGCTA | 0.156 |

| Sequence | PBM E-score |
| --- | --- |
| AAAATTTT | 0.143 |
| AACCGTAG | -0.21 |
| GTAGAAAC | 0.158 |
| CGAACCAA | 0.0603 |
| AAAGTTCG | 0.19 |
| GGACTTAA | -0.256 |
| AAAATCAC | 0.207 |
| CCCGCGAG | -0.188 |
| CACACTGC | -0.0758 |
| CAGTTCCA | -0.131 |
| AGTCCTAT | -0.186 |
| CCTCAACA | 0.265 |
| CGCTCAAG | -0.0893 |
| TCCCAACA | 0.0906 |
| CGAAGCAA | -0.0077 |
| ACCCAGTC | -0.192 |
| GCAGACTA | -0.158 |
| CATGTTCG | -0.115 |
| GGGATGGA | -0.119 |
| TAACGTGA | 0.284 |
| CCGAAAGC | -0.322 |
| CGTCCCTC | -0.0115 |

| Sequence | PBM E-score |
| --- | --- |
| CCGTTTCC | -0.169 |
| AAGTGGCT | 0.069 |
| AAGTAGTC | 0.0484 |
| CAAGGCCG | -0.142 |
| TCAGAGGA | -0.193 |
| CGCTGCAG | -0.238 |
| AGCCACTC | -0.129 |
| GGCATAGA | -0.0127 |
| GATGTTAC | 0.268 |
| CGAAAAAA | 0.276 |
| ATCCCAGC | -0.175 |
| CTTACCTC | -0.0973 |
| ACGCTGCG | -0.128 |
| GACGGCCA | -0.163 |
| ATAAAGAG | 0.117 |
| AAACGTGT | 0.11 |
| CACTGATG | 0.0905 |
| GCGCCGTA | 0.384 |
| TCATGAGA | 0.214 |
| CAAAGGAG | 0.0052 |
| CATGACGA | 0.438 |
